# The supplement of paper PMC4604168 (melanoma cell lines)
# This is one part of the list. Many values rest on one well or one pass, so single values are uncertain.
# Tested on: C32
# Experiment: cell count relative to DMSO control; melanoma cells; higher = more viable cells
# Conditions: library dose: standard library concentration; 72 h
# 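Also: cells treated in 1,536-well plates, then fixed and DAPI-stained, with nuclei counted from automated high-throughput microscope images.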
row,SMILES,cell count [%]
1,"COc1cc([C@@H]2c3cc4c(cc3[C@@H](O[C@@H]3O[C@@H]5CO[C@@H](C)O[C@H]5[C@H](O)[C@H]3O)[C@H]3COC(=O)[C@H]23)OCO4)cc(OC)c1O [etoposide] + NC(=O)Nc1cc(-c2cccc(F)c2)sc1C(=O)N[C@H]1CCCNC1 [AZD7762] (first compound 0.1 µM, partner dose 0.1 µM)",60.5
2,"CCN(CC)CCNC(=O)c1c(C)[nH]c(/C=C2\C(=O)Nc3ccc(F)cc32)c1C [sunitinib] + Nc1ccn([C@@H]2O[C@H](CO)[C@@H](O)C2(F)F)c(=O)n1 [gemcitabine] (first compound 2 µM, partner dose 0.002 µM)",87
3,"C[C@]1(O)C[C@@H](c2nc(-c3ccc4ccc(-c5ccccc5)nc4c3)c3c(N)nccn32)C1 + O=C(O)c1ccc2c(c1)nc(Nc1cccc(Cl)c1)c1ccncc12 [CX4945] (first compound 2 µM, partner dose 2 µM)",83.3
4,"COc1cc([C@@H]2c3cc4c(cc3[C@@H](O[C@@H]3O[C@@H]5CO[C@@H](C)O[C@H]5[C@H](O)[C@H]3O)[C@H]3COC(=O)[C@H]23)OCO4)cc(OC)c1O [etoposide] + CS(=O)(=O)c1ccc(C(=O)Nc2ccc(Cl)c(-c3ccccn3)c2)c(Cl)c1 [vismodegib] (first compound 0.1 µM, partner dose 5 µM)",100
5,"Cn1cnc2c(F)c(Nc3ccc(Br)cc3Cl)c(C(=O)NOCCO)cc21 [selumetinib] + COC(=O)c1sccc1S(=O)(=O)Nc1ccc(Nc2ccccc2)cc1OC [GSK0660] (first compound 0.075 µM, partner dose 5 µM)",92.3
6,"CCN(CC)CCNC(=O)c1c(C)[nH]c(/C=C2\C(=O)Nc3ccc(F)cc32)c1C [sunitinib] + COc1cc(Nc2ncc(F)c(Nc3ccc4c(n3)NC(=O)C(C)(C)O4)n2)cc(OC)c1OC [Tamatinib] (first compound 2 µM, partner dose 2 µM)",62.6
7,"Cn1cnc2c(F)c(Nc3ccc(Br)cc3Cl)c(C(=O)NOCCO)cc21 [selumetinib] + CC(C)(C)c1cnc(CSc2cnc(NC(=O)C3CCNCC3)s2)o1 [SNS-032] (first compound 0.075 µM, partner dose 0.05 µM)",71.3
8,"C[C@]1(O)C[C@@H](c2nc(-c3ccc4ccc(-c5ccccc5)nc4c3)c3c(N)nccn32)C1 + CCN(CC)CCNC(=O)c1c(C)[nH]c(/C=C2\C(=O)Nc3ccc(F)cc32)c1C [sunitinib] (first compound 2 µM, partner dose 2 µM)",69.3
9,"COc1cc([C@@H]2c3cc4c(cc3[C@@H](O[C@@H]3O[C@@H]5CO[C@@H](C)O[C@H]5[C@H](O)[C@H]3O)[C@H]3COC(=O)[C@H]23)OCO4)cc(OC)c1O [etoposide] + O=C(Nc1cccc(Cl)c1)Nc1ncc(CCNc2ncnc3ccsc23)s1 [SNS314] (first compound 0.1 µM, partner dose 0.004 µM)",59.5
10,"CCN(CC)CCNC(=O)c1c(C)[nH]c(/C=C2\C(=O)Nc3ccc(F)cc32)c1C [sunitinib] + CCCS(=O)(=O)Nc1ccc(F)c(C(=O)c2c[nH]c3ncc(Cl)cc23)c1F [PLX4720] (first compound 2 µM, partner dose 0.4 µM)",57.1
11,"C[C@]1(O)C[C@@H](c2nc(-c3ccc4ccc(-c5ccccc5)nc4c3)c3c(N)nccn32)C1 + Nc1cccc2c1CN(C1CCC(=O)NC1=O)C2=O [lenalidomide] (first compound 2 µM, partner dose 5 µM)",93
12,"Cn1cnc2c(F)c(Nc3ccc(Br)cc3Cl)c(C(=O)NOCCO)cc21 [selumetinib] + CCc1ccc(CCOc2ccc(CC3SC(=O)NC3=O)cc2)nc1 [pioglitazone] (first compound 0.075 µM, partner dose 10 µM)",86.7
13,"CCN(CC)CCNC(=O)c1c(C)[nH]c(/C=C2\C(=O)Nc3ccc(F)cc32)c1C [sunitinib] + CCCCCCCCc1ccc(CCC(N)(CO)CO)cc1 [fingolimod] (first compound 2 µM, partner dose 10 µM)",4.75
14,"CCN(CC)CCNC(=O)c1c(C)[nH]c(/C=C2\C(=O)Nc3ccc(F)cc32)c1C [sunitinib] + NCC(=O)Nc1ccc(-n2nc(C(F)(F)F)cc2-c2ccc3c(ccc4ccccc43)c2)cc1 [OSU03012] (first compound 2 µM, partner dose 5 µM)",75.9
15,"Cn1cnc2c(F)c(Nc3ccc(Br)cc3Cl)c(C(=O)NOCCO)cc21 [selumetinib] + O=C(O)C(=O)Nc1sc2c(c1C(=O)O)CCNC2 [TCS401] (first compound 0.075 µM, partner dose 8.33333 µM)",81.2
16,"COc1cc([C@@H]2c3cc4c(cc3[C@@H](O[C@@H]3O[C@@H]5CO[C@@H](C)O[C@H]5[C@H](O)[C@H]3O)[C@H]3COC(=O)[C@H]23)OCO4)cc(OC)c1O [etoposide] + C=C(c1ccc(C(=O)O)cc1)c1cc2c(cc1C)C(C)(C)CCC2(C)C [Bexarotene] (first compound 0.1 µM, partner dose 10 µM)",98
17,"C[C@]1(O)C[C@@H](c2nc(-c3ccc4ccc(-c5ccccc5)nc4c3)c3c(N)nccn32)C1 + C=C(c1ccc(C(=O)O)cc1)c1cc2c(cc1C)C(C)(C)CCC2(C)C [Bexarotene] (first compound 2 µM, partner dose 10 µM)",97.4
18,"C[C@]1(O)C[C@@H](c2nc(-c3ccc4ccc(-c5ccccc5)nc4c3)c3c(N)nccn32)C1 + NC1(c2ccc(-c3nc4ccn5c(=O)[nH]nc5c4cc3-c3ccccc3)cc2)CCC1 [MK2206] (first compound 2 µM, partner dose 2 µM)",77.8
19,"COc1cc([C@@H]2c3cc4c(cc3[C@@H](O[C@@H]3O[C@@H]5CO[C@@H](C)O[C@H]5[C@H](O)[C@H]3O)[C@H]3COC(=O)[C@H]23)OCO4)cc(OC)c1O [etoposide] + Cn1c(Nc2ccc(C(F)(F)F)cc2)nc2cc(Oc3ccnc(-c4ncc(C(F)(F)F)[nH]4)c3)ccc21 [CHIR265] (first compound 0.1 µM, partner dose 0.4 µM)",50.3
20,"Cn1cnc2c(F)c(Nc3ccc(Br)cc3Cl)c(C(=O)NOCCO)cc21 [selumetinib] + O=c1cc(-c2cccc3c2Sc2ccccc2S3)oc(N2CCOCC2)c1 [KU55933] (first compound 0.075 µM, partner dose 5 µM)",61
21,"C[C@]1(O)C[C@@H](c2nc(-c3ccc4ccc(-c5ccccc5)nc4c3)c3c(N)nccn32)C1 + Nc1ncn([C@H]2C[C@H](O)[C@@H](CO)O2)c(=O)n1 [decitabine] (first compound 2 µM, partner dose 0.5 µM)",102
22,"COc1cc([C@@H]2c3cc4c(cc3[C@@H](O[C@@H]3O[C@@H]5CO[C@@H](C)O[C@H]5[C@H](O)[C@H]3O)[C@H]3COC(=O)[C@H]23)OCO4)cc(OC)c1O [etoposide] + O=C(Nc1ccccc1)c1cc([N+](=O)[O-])ccc1Cl [GW9662] (first compound 0.1 µM, partner dose 10 µM)",77.7
23,"CCN(CC)CCNC(=O)c1c(C)[nH]c(/C=C2\C(=O)Nc3ccc(F)cc32)c1C [sunitinib] + NC1(c2ccc(-c3nc4ccn5c(=O)[nH]nc5c4cc3-c3ccccc3)cc2)CCC1 [MK2206] (first compound 2 µM, partner dose 2 µM)",61.7
24,"Cn1cnc2c(F)c(Nc3ccc(Br)cc3Cl)c(C(=O)NOCCO)cc21 [selumetinib] + COCC[n+]1c2c(n(Cc3cnccn3)c1C)C(=O)c1ccccc1C2=O [YM155] (first compound 0.075 µM, partner dose 0.002 µM)",82
25,"Cn1cnc2c(F)c(Nc3ccc(Br)cc3Cl)c(C(=O)NOCCO)cc21 [selumetinib] + NC1(c2ccc(-c3nc4ccn5c(=O)[nH]nc5c4cc3-c3ccccc3)cc2)CCC1 [MK2206] (first compound 0.075 µM, partner dose 2 µM)",73.9
26,"COc1cc([C@@H]2c3cc4c(cc3[C@@H](O[C@@H]3O[C@@H]5CO[C@@H](C)O[C@H]5[C@H](O)[C@H]3O)[C@H]3COC(=O)[C@H]23)OCO4)cc(OC)c1O [etoposide] + COc1cc(Nc2ncc(F)c(Nc3ccc4c(n3)NC(=O)C(C)(C)O4)n2)cc(OC)c1OC [Tamatinib] (first compound 0.1 µM, partner dose 2 µM)",98
27,"Cn1cnc2c(F)c(Nc3ccc(Br)cc3Cl)c(C(=O)NOCCO)cc21 [selumetinib] + CC(C)C[C@H](NC(=O)[C@H](Cc1ccccc1)NC(=O)c1cnccn1)B(O)O [Bortezomib] (first compound 0.075 µM, partner dose 0.005 µM)",30.7
28,"COc1cc([C@@H]2c3cc4c(cc3[C@@H](O[C@@H]3O[C@@H]5CO[C@@H](C)O[C@H]5[C@H](O)[C@H]3O)[C@H]3COC(=O)[C@H]23)OCO4)cc(OC)c1O [etoposide] + Oc1nc(-c2ccc(C(F)(F)F)cc2)nc2c1CSCC2 [XAV939] (first compound 0.1 µM, partner dose 10 µM)",90.7
29,"COc1cc([C@@H]2c3cc4c(cc3[C@@H](O[C@@H]3O[C@@H]5CO[C@@H](C)O[C@H]5[C@H](O)[C@H]3O)[C@H]3COC(=O)[C@H]23)OCO4)cc(OC)c1O [etoposide] + COc1ccc(C2=N[C@@H](c3ccc(Cl)cc3)[C@@H](c3ccc(Cl)cc3)N2C(=O)N2CCNC(=O)C2)c(OC(C)C)c1 [Nutlin-3] (first compound 0.1 µM, partner dose 0.5 µM)",81.5
